In all, about 110,000 compounds were measured (“z-score”: median about -0.1, highest 2% from about 2 on). The list shows a part of the results. The source made the active and inactive calls.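 The calls were made as follows: active = z-score in the third read window above 3 or below -3; inactive = the rest.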

The assay has as its target Metabotropic glutamate receptor 8 (Rattus norvegicus) (UniProt P70579). Put plainly: rat mGluR8 modulators via GIRK flux, primary screen, cell-based, thallium flux, HTS (AID 488969). As to conditions: HEK293 rat mGluR8, GIRK (G protein-gated inwardly rectifying potassium channel) thallium flux, FluoZin2; at 10 µM; stronger effect = higher value; submaximal glutamate (EC20) added with thallium.
UniProt P70579, sequence (P70579 whole entry, looked up): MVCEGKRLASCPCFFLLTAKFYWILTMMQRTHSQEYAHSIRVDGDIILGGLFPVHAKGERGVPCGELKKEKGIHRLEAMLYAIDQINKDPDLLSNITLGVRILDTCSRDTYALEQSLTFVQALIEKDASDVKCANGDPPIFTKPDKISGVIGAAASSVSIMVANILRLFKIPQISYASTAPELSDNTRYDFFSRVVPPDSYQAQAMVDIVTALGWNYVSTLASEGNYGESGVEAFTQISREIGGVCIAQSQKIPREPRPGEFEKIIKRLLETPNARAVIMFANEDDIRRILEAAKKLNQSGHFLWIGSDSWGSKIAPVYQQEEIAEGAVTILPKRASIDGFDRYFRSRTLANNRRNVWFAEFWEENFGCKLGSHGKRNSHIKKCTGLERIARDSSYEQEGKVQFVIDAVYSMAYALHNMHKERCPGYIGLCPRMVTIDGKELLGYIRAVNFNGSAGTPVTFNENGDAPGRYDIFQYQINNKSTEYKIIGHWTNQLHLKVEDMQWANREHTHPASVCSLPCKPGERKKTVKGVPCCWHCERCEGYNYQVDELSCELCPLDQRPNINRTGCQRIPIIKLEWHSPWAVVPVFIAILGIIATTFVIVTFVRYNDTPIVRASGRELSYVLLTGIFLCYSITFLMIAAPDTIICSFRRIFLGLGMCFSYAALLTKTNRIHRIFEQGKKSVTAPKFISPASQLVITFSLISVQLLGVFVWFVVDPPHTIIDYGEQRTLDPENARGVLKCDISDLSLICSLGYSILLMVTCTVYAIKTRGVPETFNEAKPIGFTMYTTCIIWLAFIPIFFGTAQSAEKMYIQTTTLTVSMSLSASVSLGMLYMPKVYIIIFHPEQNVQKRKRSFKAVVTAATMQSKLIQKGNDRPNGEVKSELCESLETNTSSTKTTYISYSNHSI
`O=[N+]([O-])c1cccc(C(=Nc2ccccc2Cl)NO)c1` showed a z-score of -0.297.
Consider `CCNC(=O)CCSc1nnc(-c2ccco2)o1`, for which the z-score is 0.0546.
Regarding `CCOc1ccccc1NC(=S)NNS(=O)(=O)c1c(C)cc(C)cc1C`, the z-score is 0.289.
Next, `Cc1nc(SCC(=O)N2CCc3ccccc3C2)c2c(C)c(C)sc2n1`: -0.304; `CCn1c(NC(=S)Nc2ccccc2)nc2ccccc21`: active: 15.2.
For `CC(C)C(=O)c1cn(CC(=O)NCc2ccc3c(c2)OCO3)c2ccccc12` the value was -1.01; for `CCCC(C)NC(=O)COc1ccc(S(=O)(=O)c2ccc(OCC(=O)NC(C)CCC)cc2)cc1` (stereo unspecified), -0.128; for `CC(NC(=S)Nc1ccc(S(N)(=O)=O)cc1)c1ccc2c(c1)OCO2` (stereo unspecified), -0.409.
Molecule `Cn1c(Cl)c(/C=N/OC(=O)c2ccccc2Cl)c2ccccc21` showed a z-score of 0.017.
`Cc1cccc(Nc2nc(N)nc(CSc3nccc(C)n3)n2)c1` showed a z-score of 0.127.
Next, `Brc1ccc(CSc2nnc(-c3ccco3)o2)cc1`: -0.352; `CCOC(=O)C1=C(c2ccccc2)O/C(=C(/C(=O)OC)C(F)(F)F)S1`: -0.0864.
As for `CCCn1nnnc1NC(=O)c1cccs1`, the z-score is 0.876.
`Cc1ccc(C)c(NC(NC(=O)c2cccnc2)C(Cl)(Cl)Cl)c1` (stereo unspecified) came in with a z-score of -0.0606.
`COc1ccccc1N1CCN(S(=O)(=O)Cc2ccccc2Cl)CC1` had a z-score of -0.125.
Take `COc1ccc(/C=C2\C(=O)NC(=S)N2C(=O)c2ccc(F)cc2)cc1`: the z-score is active: 3.14.
Consider `CCCC1CCC(c2nc(-c3cccnc3)no2)CC1` (stereo unspecified), for which the z-score stood at 0.21.
`Cc1ccc(S(=O)(=O)NCc2ccc(/C=C(/C#N)C(=O)NCc3ccccc3)o2)cc1` returned a z-score of -0.359.
The molecule `CCN=c1sc2ccccc2n1CC(O)COc1ccccc1` (stereo unspecified) came in with a z-score of 0.979.
`Cc1cccc2cc(CN(Cc3cccs3)C(c3nnnn3C3CCCC3)C(C)C)c(=O)[nH]c12` (stereo unspecified): the z-score worked out at 0.101.
Turning to `Cc1ccc(-c2nc(N/N=C/c3ccccc3[N+](=O)[O-])c3ccccc3n2)cc1`, the z-score is -0.406.
For `CC(=O)NCC(=O)N(c1ccccc1)C1(C(=O)NC2CCCCC2)CCCCC1` the value was 0.432; for `COc1ccc(N(C(=O)C(C)C)S(=O)(=O)c2cccs2)cc1`, 0.0305.
`CCOc1ccc(OCC(=O)Nc2ccc(S(=O)(=O)Nc3cc(C)nc(C)n3)cc2)cc1` came in with a z-score of 0.47.
`OCCN(Cc1ccccc1)Cc1ccccc1Cl` showed a z-score of 0.0815.
Turning to `O=C1CCOc2cc(OCc3ccccc3)ccc21`, the z-score was -0.0517.
In the case of `CC1CCN(S(=O)(=O)c2ccc(S(=O)(=O)N3CCCN(Cc4ccccc4)C3)cc2)CC1`, the z-score is -0.138.
On to `CCOC(=O)N1CCN(S(=O)(=O)c2ccc(C)cc2)C1c1ccccc1` (stereo unspecified), for which the z-score is -0.0804.
`CCCCOC(=O)c1ccc(NC(=O)c2ccoc2C)cc1` yielded a z-score of -0.0292.
In turn, `O=C(CC1c2ccccc2Oc2ccccc21)N1CCN(c2ccccn2)CC1` came in with a z-score of -0.502.
With `O=Cc1c(N2CCCCCC2)nc2ccccn2c1=O`, the z-score is -0.652.
For `CCCc1nc2ccccc2n1CCOc1ccccc1` the value was -0.561; for `COc1ccc(Cn2c(CCC(=O)Nc3ccccc3)nc3cccnc32)cc1`, -0.156.
For `CCC(=O)N1CCN(c2c(Cl)cccc2[N+](=O)[O-])CC1`, the z-score is -0.126.
The molecule `NC(=O)c1ccccc1NS(=O)(=O)Cc1ccccc1` gave a z-score of 0.144.
`C=CCSc1nnc(-c2cnn(-c3ccccc3)c2-n2cccc2)n1C` showed a z-score of -0.242.
Molecule `CC(CC(=O)Nc1ccc(Cl)c([N+](=O)[O-])c1)c1ccccc1` (stereo unspecified) displayed a z-score of -0.175.
Next, `O=C(NC(=S)Nc1ccccc1N1CCCCC1)c1cccs1`: -0.0387.
Molecule `O=C(Nc1cccc(Cl)c1)c1cccc(Oc2ccc([N+](=O)[O-])cc2Cl)c1` had a z-score of 0.335.
With `O=C(CSc1nnc(-c2cccnc2)n1Cc1ccco1)c1ccc2ccccc2c1`, the z-score is -1.51.
For `Cc1ccc(C(=O)CSc2nc3ccccc3o2)cc1`, the z-score worked out at 0.274.
The molecule `O=C1NC(=S)N/C1=C/c1ccc(-c2c(Br)cc([N+](=O)[O-])cc2Br)o1` showed a z-score of -0.358.
For `CC(=O)c1cccc(NC(=O)N2CCc3ccccc3C2)c1` the value was 0.52; for `CC(C)C(=O)Nc1ccccc1C(=O)OCC(=O)c1ccc2c(c1)OCCO2`, -0.424.
`COc1ccc(OCCCC(=O)NC(C)c2ccccc2)cc1` (stereo unspecified) registered a z-score of -0.342.
For `CCOC(=O)N1CCN(C(=O)CS(=O)(=O)c2cn(Cc3ccccc3Cl)c3ccccc23)CC1`, the z-score was 0.175.
As for `CCc1c(C)c2ccc(OCC(=O)N(C)C)c(C)c2oc1=O`, the z-score is 0.0573.
For `Cc1nn(CC(=O)Nc2cccc(S(N)(=O)=O)c2)c(C)c1[N+](=O)[O-]` the value was -0.212; for `COc1ccc(CNC(=O)C2=C(C)C(=O)OC23CCC(C)CC3)cc1` (stereo unspecified), -0.0555.
As for `O=c1c2ccccc2ncn1CCCSc1ccc(Cl)cc1`, the z-score turned out to be 0.183.
The molecule `Cn1c(NCCO)nc2c(c1=O)C1(CCCCC1)Cc1ccccc1-2` had a z-score of -0.614.
Turning to `O=C(O)c1cnn2c(C(F)(F)F)cc(-c3ccccc3)nc12`, the z-score came to 0.0151.
Next, `Cc1ccc(NC(=O)COC(=O)c2cc(C)nc3ccccc23)c([N+](=O)[O-])c1`: -0.23.
In the case of `Cc1ccc(S(=O)(=O)N2CCCOC2CNC(=O)C(=O)NCc2ccncc2)cc1` (stereo unspecified), the z-score worked out at 0.0703.
Molecule `COc1ccc(N2C(=O)CC(NCc3ccncc3)C2=O)cc1` (stereo unspecified) gave a z-score of -0.241.
Molecule `CC(=O)Nc1ccc2c(c1)C(=O)c1ccccc1C2=O` had a z-score of -0.494.
In the case of `CCOC(=O)c1c(NC(=O)C2C3C=CC(CC3)C2C(=O)O)sc(C)c1C` (stereo unspecified), the z-score came out at 0.959.
For `C=CCSc1nnc(-c2nnc(SCC=C)n2-c2ccccc2)n1-c1ccccc1` the value was -0.178.
The molecule `Cc1ccnc(NC2OC(=O)c3ccccc32)c1` (stereo unspecified) gave a z-score of 0.529.
`CCc1ccccc1NC(=O)CN(c1cccc(OC)c1)S(C)(=O)=O` came in with a z-score of -0.141.
`N#Cc1c(-c2ccc3c(c2)OCO3)csc1N` returned a z-score of -0.142.
`Cc1cccc(N2CCN(S(=O)(=O)c3cccc4nonc34)CC2)c1C` came in with a z-score of 0.0258.
In turn, `Cc1ccc(-c2nnc(SCc3nc(N)nc(Nc4ccccc4C)n3)n2N)cc1` gave a z-score of -0.195.
The molecule `COCCn1c(SCc2nc(N)nc(Nc3ccccc3C)n2)nc2ccccc2c1=O` yielded a z-score of -0.279.
With `O=c1[nH]n(-c2ccccc2)c(=O)c(Cl)c1Cl`, the z-score came out at 0.0804.
On to `COc1ccc(NC(=O)Cc2coc3cc(C)ccc23)cc1S(=O)(=O)N1CCOCC1`, for which the z-score was -0.439.
With `COc1ccc(Cc2nn3c(-c4ccccc4Br)nnc3s2)cc1`, the z-score was -0.534.
Molecule `CCCn1nc(Oc2nc(NCC)nc(NC(C)C)n2)ccc1=O` yielded a z-score of -0.313.
On to `CCOc1ncccc1C(=O)N(C)CC1COc2ccccc2O1` (stereo unspecified), for which the z-score is -0.000907.
`COc1cc(/C=N/N(C)c2ccccc2)ccc1O` gave a z-score of -1.29.
Next, `CCC(CC)C(=O)NCCc1cc2ccc(OC)cc2[nH]c1=O`: 0.152; `CCN(c1ccccc1)S(=O)(=O)c1ccc(OC)c(OC)c1`: -0.127.
For `COc1cccc(N2CCN(C3CCCC(C)C3)CC2)c1` (stereo unspecified) the value was -0.393.
Next, `O=C(/C=C\c1ccc2c(c1)OCO2)Nc1nnc(SCC(=O)OCc2ccccc2)s1`: -0.385.
Molecule `O=C(CSc1nnc(Cc2ccccc2)o1)NCc1ccco1` had a z-score of 1.21.
`Clc1ccc(-c2noc(CN3CCN(c4ccccc4)CC3)n2)cc1` registered a z-score of 0.526.
Consider `O=C(CCn1cccc1)NCCc1ccc(Cl)cc1`, for which the z-score was -0.743.
Molecule `Cc1cc(C)cc(OCc2nnc(SCC(=O)N3CCN(c4ccccc4)CC3)o2)c1` displayed a z-score of -0.592.
For `Cc1cc(C)c(C(N)=O)c(Nc2ccc3c(c2)OCCO3)n1` the value was -0.00183; for `CCOC(=O)C1=C(Cn2cnc3ccccc32)NC(=O)NC1c1cc(C)ccc1C` (stereo unspecified), 0.667.
In turn, `CCCCCOC(=O)c1ccc(OC(=O)c2cncc(Br)c2)cc1` returned a z-score of -0.0693.
The molecule `O=C(CNS(=O)(=O)c1ccccc1)Nc1ccc(C(F)(F)F)cc1` came in with a z-score of -0.247.
In the case of `COc1cc(NS(=O)(=O)c2ccc(NC(=O)/C(=C/c3ccccc3Cl)NC(=O)c3ccccc3)cc2)nc(OC)n1`, the z-score is -0.196.
For `COc1ccc(C2Nc3ccccc3C(=O)N2c2ccc(F)cc2)cc1CSc1ccccn1` (stereo unspecified) the value was -0.342; for `CCOC(=O)C(C)c1ccc2cc(OC)ccc2c1` (stereo unspecified), -0.0102.
For `CN1CC(=O)N(CC(=O)Nc2ccc(Cl)c(C(F)(F)F)c2)C1=O`, the z-score was -0.0297.
In the case of `c1ccc(-c2nc(NCC3CCCO3)c3oc4ccccc4c3n2)cc1` (stereo unspecified), the z-score was -0.637.
Next, `CCOc1ccc2nc(SCc3ccccc3C#N)sc2c1`: -0.141.
For `Cc1ccc(SCc2ccc(C(=O)Nc3cccc([N+](=O)[O-])c3C)cc2)cc1`, the z-score is -0.0842.
`CCn1c(COc2ccc(OC)cc2)nnc1SCC(=O)Nc1cc(OC)ccc1OC` registered a z-score of -1.08.
Next, `COC(=O)CSC1=C(C#N)C(c2ccc(C(C)C)cc2)CC(=O)N1` (stereo unspecified): -0.111; `CCOC(=O)CC(=O)CSc1nnc2sc3ccccc3n12`: 0.25.
Molecule `CCOC(=O)c1cc(C#N)c(N2CCCCC2)nc1-c1ccccc1` showed a z-score of -0.0359.
Turning to `COC(=O)[C@H](C)NC(=O)Nc1cccc(C(F)(F)F)c1`, the z-score came to 0.715.
Molecule `O=C(CSc1nnc(SCC(=O)NCc2ccc3c(c2)OCO3)s1)NCc1ccc2c(c1)OCO2` registered a z-score of -0.328.
In turn, `CC(C)C(=O)Nc1cccc(S(=O)(=O)c2cccc(NC(=O)C(C)C)c2)c1` showed a z-score of 0.202.
For `CCN(CC)c1ccc(NC(=O)COC(=O)c2ccc3ccccc3n2)cc1` the value was -0.0565; for `O=C(NCc1ccccc1)c1cc2nc(C3CC3)cc(C(F)(F)F)n2n1`, -0.331.
`Cc1c(Cl)cccc1NC(=O)CCC(=O)NNC(=O)c1ccccc1`: the z-score was -0.148.
Next, `CCCCN(CC)C(=O)Cc1c(C(=O)O)[nH]c2ccc(Cl)cc12`: -0.455.
As for `O=C(O)c1ccccc1NS(=O)(=O)c1cccc2cccnc12`, the z-score came to 0.764.
Next, `COc1cc(C(=O)OCCN2CCCCC2)ccc1O`: 0.0129; `CCCCn1ccc(=O)c2c(C(F)(F)F)nccc21`: -0.0278.
In the case of `O=S(=O)(c1ccc(F)cc1)N1CC2CCCN2c2ccc(C(F)(F)F)cc21` (stereo unspecified), the z-score was determined as 1.48.
In turn, `O=C(CCN1C(=O)C2C3C=CC(C4CC34)C2C1=O)Oc1cccc2cccnc12` (stereo unspecified) displayed a z-score of -1.21.
Consider `O=C(Nc1ccc(S(=O)(=O)N2CCCC2)cc1)c1cccnc1`, for which the z-score turned out to be 0.393.
`O=C(CSc1nc2nc(-c3cccs3)cc(C(F)(F)F)c2c(=O)[nH]1)NCc1ccco1` gave a z-score of 0.734.
Take `COc1ccc(C(=O)N2CCC(C(=O)O)CC2)cc1`: the z-score is -0.285.
For `CC(C)(C)C1(C)OC(C(=O)NC2CCCCC2)C(C(=O)NC2CCCCC2)O1` (stereo unspecified), the z-score is -0.111.
For `c1ccc(Cc2nnc3sc(-c4cccs4)nn23)cc1` the value was -0.714; for `N#Cc1nc(-c2ccc(OCc3ccccc3)cc2)oc1N1CCC(C(N)=O)CC1`, 1.72.
